Measured values as given in article PMC12040169 (PLOS Biology, 2025).
This is one part of the list.

These compounds were tested on T1, C. trachomatis L2/434/Bu expressing GFP (CTL2-GFP). Conditions: total inclusion area; 28.5 h, 10 µM; inhibitor.
T1 construct: L2/434/Bu GFP intracellular growth in HeLa cells
Set-up: species or system HeLa; C. trachomatis total inclusion area by high-content imaging, normalised to DMSO
Procedure, shortened: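 Following bulk GFP and resorufin fluorescence reads, infected cells were fixed, Hoechst-stained and imaged on a high-content platform. Inclusion total area and number per well served as growth proxies; nuclei counts indicated host viability. MICs were derived as for the fluorescence assay.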

Compared with `O=C(O)c1ccc2c(c1)C(=O)N(c1ccc(-c3nc(-c4ccccc4)c4ccccc4n3)cc1)C2=O` [CBK263311], `COc1cc(/C=C2\C(=O)N(c3ccc(NC(C)=O)cc3)N=C2c2ccccc2)ccc1O` [CBK265664] is higher in “% of control remaining” value: 55.3876 for the first, 111.733 for the second.

Going from `Cn1c(N2CC[C@H](O)C2)nc2cc(C(=O)NCc3ccsc3)ccc21` [CBK307471] to `Cn1c(=O)n(C)c2cc(CNC(=O)COCC3CCCCO3)ccc21` (centres unmarked) [CBK307061], the “% of control remaining” value falls from 64.207 to 28.7966.

Going from `CCOc1ccc(C(N)CC(=O)O)c2ccccc12` (centres unmarked) [CBK287120] to `CCOc1ccccc1C(=O)N1CCC(Cc2ccc(-c3ccccc3)cc2)(C(N)=O)CC1` [CBK285775], the “% of control remaining” value rises from 96.8263 to 112.781.

Compared with `COCCNc1nccnc1-c1cccnc1` [CBK037376], `CC(C)Nc1nc(-c2cccnc2)cn2ccnc12` [CBK093608] is lower in “% of control remaining” value: 125.071 for the first, 100.194 for the second.

First: O=C1CC(c2ccc(Br)cc2)Nc2ccc3ccccc3c21 (centres unmarked) [CBK094798]
Second: COc1ccc(C)cc1S(=O)(=O)Nc1cc(Cl)ccc1C(=O)NCc1ccccc1 [CBK113954]
The “% of control remaining” value of the first is higher: 105.165 for the first, 89.9629 for the second.

Going from `CC(C(=O)NC(c1ccncc1)c1cccs1)n1ccnc1` (centres unmarked) [CBK281438] to `Cn1c(=O)n(Cc2ccccn2)c(=O)c2cnc(-c3ccncc3)nc21` [CBK288592], the “% of control remaining” value falls from 109.104 to 90.1421.

First: Cc1ccc(CN(Cc2ncc[nH]2)C2CC(C)(C)NC(C)(C)C2)o1 [CBK283191]
Second: Cc1ccc2cc(CN(Cc3ccco3)C(=O)C3CCCO3)c(O)nc2c1 (centres unmarked) [CBK269300]
The “% of control remaining” value of the first is lower: 58.968 for the first, 66.3113 for the second.

Going from `CNC(=O)C1(Cc2ccccc2-c2ccccc2)CCN(C(=O)Cc2ccccc2)CC1` [CBK285695] to `O=C(CNC(=O)c1ccco1)Nc1cccc(-c2nc3ccccc3s2)c1` [CBK295142], the “% of control remaining” value rises from 102.446 to 134.661.

Compared with `CC(C)=NNC(=N)Nc1ccccc1` [CBK021452], `Cc1cc(C)[n+](-c2ccccc2O)c(C)c1` [CBK005458G] is higher in “% of control remaining” value: 78.1521 for the first, 81.4978 for the second.

Going from `CCCn1c(CN2CCOCC2)nc2ccccc21` [CBK287784] to `Cc1ccc2cc(C(=O)N3CCCCC3CN3CCOCC3)[nH]c2c1` (centres unmarked) [CBK304374], the “% of control remaining” value rises from 72.8403 to 86.3136.

Compared with `COCn1nccc1S(=O)(=O)NCCc1cn2ccccc2n1` [CBK304060], `CC(C)Nc1nc2ccccc2nc1OCCCN(C)C` [CBK113416] is higher in “% of control remaining” value: 65.8563 for the first, 83.4373 for the second.

Going from `COc1ccc(-c2cc(N3CCN(CCN4CCCC4)CC3)ncn2)cc1OC` [CBK091173] to `C/C=C/c1ccc(OCCNC2CCCC2)c(OC)c1` [CBK266399G], the “% of control remaining” value rises from 88.9473 to 133.102.

Compared with `c1coc(-c2nc3n(n2)CCS3)c1` [CBK007565], `S=C1NCCN1c1nnc(-c2cccs2)[nH]1` [CBK007096] is higher in “% of control remaining” value: 67.6589 for the first, 90.4982 for the second.

First: Cc1cc(C)n(C(=O)c2cn3cc(Cl)ccc3n2)n1 [CBK288185]
Second: Cc1cc(C)n(CC(=O)NC2CCCOc3c(F)cccc32)n1 (centres unmarked) [CBK305553]
The “% of control remaining” value of the first is higher: 92.8134 for the first, 64.2315 for the second.

Compared with `O=C(N[C@@H](Cn1ccc(=O)[nH]c1=O)C(=O)O)C1CCCCC1` [CBK289651], `CC(=O)N(C)c1nc(-c2ccccc2C)ccc1C(=O)NC1CCCCC1` [CBK106333] is lower in “% of control remaining” value: 106.445 for the first, 96.7872 for the second.

First: CCNc1cc(-c2ccc(CC(C)C)cc2)ncn1 [CBK090884]
Second: O=C(O)c1ccc(CNCc2ccc(-c3ccc(Cl)cc3)o2)cc1 [CBK269619C]
The “% of control remaining” value of the first is lower: 96.1043 for the first, 107.275 for the second.

Going from `COc1ccc(Nc2nc(N)nc(CSCCO)n2)cc1` [CBK266714] to `Cc1onc(-c2ccccc2)c1CNC(=O)c1ccc(OC(F)(F)F)cc1` [CBK144080], the “% of control remaining” value falls from 105.804 to 102.553.

Compared with `Cc1cn2c(nc1=O)OC[C@H]1O[C@@H]2C[C@H]1O` [CBK201280], `CC1CC1C(=O)N1C2CCC1CC(O)(Cn1ccc3ccncc31)C2` (centres unmarked) [CBK284653] is lower in “% of control remaining” value: 128.312 for the first, 103.797 for the second.

First: O=C(Nc1snnc1-c1ccc(Cl)cc1)c1cccc(C(F)(F)F)c1 [CBK153246]
Second: COc1ccc(Cl)cc1C(=O)Nc1cc(C)c2c(=O)oc3ccccc3c2n1 [CBK291196]
The “% of control remaining” value of the first is lower: 20.5201 for the first, 89.1478 for the second.

Going from `CCN(CC)CCN(C(=O)NCCCSC)C(C)c1ccc(OC)c(OC)c1` (centres unmarked) [CBK158803] to `COc1cc(NC(=O)c2ccc3c(c2)C(=O)N(Cc2ccco2)C3=O)c(C(=O)O)cc1OC` [CBK267436], the “% of control remaining” value rises from 108.8 to 112.883.

Compared with `COCCCOc1nc2cc(Cl)c(Cl)cc2nc1N1CCCC1` [CBK115773], `O=C(NCc1ccco1)c1cc(Br)cnc1N1CCOCC1` [CBK076268] is higher in “% of control remaining” value: 91.209 for the first, 95.2776 for the second.

Going from `Nc1nc(=O)c2cnc3ccc(F)cc3c2s1` [CBK291195] to `Cc1ccccc1-c1cc(C(=O)N(C)C)c2cnn(C(C)C)c2n1` [CBK306245], the “% of control remaining” value falls from 88.7682 to 78.0983.

First: O=C(Cc1c[nH]cn1)Nc1ccc2cc[nH]c2c1 [CBK160059]
Second: O=C(Cc1ccc([N+](=O)[O-])cc1)Nc1cc(C(=O)O)cc(C(=O)O)c1 [CBK263345]
The “% of control remaining” value of the first is lower: 99.6043 for the first, 108.8 for the second.

Compared with `CN(C)CCO/N=C(\c1ccccc1)c1ccncc1` [CBK261095G], `CC1=NN(c2ccccc2)C(=O)/C1=C(/C)NNC(=O)c1ccccn1` [CBK261837] is lower in “% of control remaining” value: 91.3411 for the first, 79.5995 for the second.

First: Cc1nn(C)cc1-c1cncn1CC(C)N1CCCCC1 (centres unmarked) [CBK281781]
Second: Cc1ccc2c(c1)C(=O)NCC1(CCN(C(=O)C3CC3)CC1)O2 [CBK284835]
The “% of control remaining” value of the first is higher: 96.5726 for the first, 92.4678 for the second.

Going from `CCCc1nc(NC(CC)c2nc(C)c(C)s2)c2cnn(C)c2n1` (centres unmarked) [CBK307261] to `Cc1ccc(CC2CCCN2CC(=O)NCc2ccccn2)cc1` (centres unmarked) [CBK304070], the “% of control remaining” value falls from 92.5784 to 60.0717.

In the case of `CN(c1ncc(-c2ccccc2)cc1C(=O)NCc1ccco1)S(C)(=O)=O` [CBK076506], the “% of control remaining” value is reported as 121.635.
